In PubChem BioAssay (NCI):
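Values below derive from 48-hour exposures of cells grown in 96-well plates, with endpoints linearly interpolated between the two concentrations bracketing the appropriate inhibition level. GI50 marks 50% less growth. TGI is the concentration that stops growth completely.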 Peptide text beside a SMILES is read from it. * marks the point of attachment. Boc = CC(C)(C)OC(=O)*; OBn = c1ccc(CO*)cc1

What follows are compounds tested on NCI-H322M lung (assay: NCI-60 cell line screen, 48 h).

| Structure (SMILES) | GI50 | TGI |
| --- | --- | --- |
| C=C(CC(=O)O)C(=O)O (tested in a mixture with another compound) | > 50 µg/mL | > 50 µg/mL |
| CCOC(=O)c1c(C)nc2c(c1N)CC(=O)N2CCc1ccccc1 | 4.81 µM | 18 µM |
| CC(=O)ON1C(=O)c2cccc3cccc(c23)C1=O |  | > 100 µM |
| Nc1nc(N)c2c(n1)NC(c1ccccc1)C1CCc3ccccc3C1=N2 (centres undefined) | 10.1 µM | 22.1 µM |
| CCOC(=N)CC(=O)Nc1cccc(Cl)c1 |  | > 100 µM |
| Cc1cc2nc3cc(C)c(N)cc3[n+](-c3ccccc3)c2cc1N | 8.29 µM | > 100 µM |
| c1cncc(C2Nc3cccc4cccc(c34)N2)c1 | > 100 µM | > 100 µM |
| N#Cc1nc(-c2ccccn2)oc1N |  | > 100 µM |
| COC(=O)c1ccccc1/C=C1\Cc2c(C)cc(C)cc2C1=O |  | > 100 µM |
| CCOC(=O)CCC(NC(=O)OCc1ccccc1)C(=O)NC(CCC(=O)OCC)C(=O)NNC(=O)OC(C)(C)C (centres undefined) |  | > 100 µM |
| CC(=O)[CH-]C(=O)c1ccccc1.CC(=O)[CH-]C(=O)c1ccccc1.Cl.[O-]c1ccccn1.[O-]c1ccccn1.[Ti+4] | > 100 µM | > 100 µM |
| Oc1cccc2cc(Br)cnc12 |  | > 100 µM |
| Oc1ccccc1C1=NOC(c2ccc(C(F)(F)F)cc2)C1 (centres undefined) |  | > 50 µM |
| O=C1c2ccccc2CC12Cc1ccccc1C2 |  | > 100 µM |
| COc1cc(-c2cc(/C=C/C(=O)c3ccc(Cl)c(Cl)c3)[nH]n2)cc(OC)c1OC | 14.5 µM | > 100 µM |
| CC1(S)CC2C(CC1Sc1ccccc1)C2(C)C (centres undefined) |  | > 100 µM |
| O/N=C(\CC(O)(C(F)(F)F)C(F)(F)F)c1cccc(Cl)c1 |  | > 100 µM |
| CCOC(=O)[C@H]1Nc2ccc([N+](=O)[O-])cc2C2c3ccccc3CC21 (some centres undefined) |  | > 100 µM |
| Cc1ccc(C(O)(c2ccc(C)cc2)c2ccccn2)cc1 |  | > 100 µM |
| COc1ccc2c(c1)CCCN2S(=O)(=O)c1ccccc1[N+](=O)[O-] |  | > 100 µM |
| [O-][N+]1=NC(c2ccccc2)=C1c1ccccc1 |  | > 50 µM |
| Cc1cc(N2CCCC2)nc(NCc2cc(Nc3ccnc4cc(Cl)ccc34)ccc2F)n1 | 1.21 µM | 2.6 µM |
| CCCCOCc1cc(CN2CCN(C)CC2)c(O)c2ncccc12 |  | > 100 µM |
| Cc1ccc(C2=C(c3ccccc3)C(c3ccccc3)Oc3ccc(C)cc32)cc1 (centres undefined) | 15.3 µM | 32 µM |
| N=C(N)c1ccc(-c2ccc(-c3cccs3)s2)s1 | 0.268 µM | 1.11 µM |

| Structure (SMILES) | GI50 | TGI |
| --- | --- | --- |
| COc1ccc(/C=C2\CN(Cc3cn(CCNc4ccnc5cc(Cl)ccc45)nn3)C/C(=C\c3ccc(OC)c(OC)c3)C2=O)cc1OC | 8.25 µM | 24.4 µM |
| C=CC(Br)(CBr)CCC(Br)C(C)(C)Cl (centres undefined) |  | 8.22 µM |
| O=c1c(Br)cc2c(-c3ccccc3)c3cc(Br)c(O)c(Br)c3oc-2c1Br |  | > 100 µM |
| COc1ccc(/C=C/C(=O)CC(=O)/C=C/c2ccc(OC)cc2)cc1 |  | > 100 µM |
| CN(C)C=NCCN1CCOCC1 |  | > 100 µM |
| COC(=O)C1C=NNC1C(=O)OC (centres undefined) |  | > 100 µM |
| CN[C@@H](C)[C@H](N)c1ccccc1 |  | > 100 µM |
| CC(C)CC(NC(=O)C(Cc1ccccc1)NC(=O)C(Cc1c[nH]c2ccccc12)NC(=O)CNC(=O)C(N)Cc1ccc(O)cc1)C(=O)O (centres undefined) (H-YGWFL-OH; configuration not given here) |  | > 100 µM |
| CC(C)CC(NC(=O)OC(C)(C)C)C(=O)N1CCCC1C(=O)OCc1ccccc1 (stereo not drawn) (Boc-Leu-Pro-OBn; configuration not given here) |  | > 100 µM |
| COc1ccc(-c2cc(-c3cc(Cl)cc(Br)c3O)[nH]c(=O)n2)cc1 |  | 59.7 µM |
| Cc1ccc(C2=C(c3ccc(C)cc3)C3(c4ccc(C)cc4)C4C(=O)c5ccccc5C(=O)C4C2(c2ccc(C)cc2)S3=O)cc1 (centres undefined) | > 100 µM | > 100 µM |
| O=C1Nc2ccccc2/C1=C\c1nc(C2CCN(S(=O)(=O)c3ccc(F)cc3)CC2)n2ccccc12 | 2.81 µM | > 100 µM |
| NC(=O)/C=c1/c2ccccc2n2nc3ccccc3c12 |  | > 100 µM |
| N#Cc1c(O)c(N=Nc2ccc(Cl)cc2)c(=O)n2c1[nH]c1ccccc12 |  | > 100 µM |
| COC(=O)C1=C(C(=O)OC)SC(=C2S[C@@H]3[C@@H]4C[C@H]([C@@H]3S2)[C@H]2C(=O)OC(=O)[C@@H]42)S1 |  | > 100 µM |
| O=C(NC(Nc1ccc(F)cc1)(C(F)(F)F)C(F)(F)F)C(C(F)(F)F)C(F)(F)F |  | > 100 µM |
| COCCN1CCN(Cc2ccc(-c3n[nH]c4c3C(=O)c3c(NC(=O)NN5CCOCC5)cccc3-4)cc2)CC1 | 0.0294 µM | 0.517 µM |
| CNS(=O)(=O)NN(C)S(=O)(=O)c1ccc2ccccc2c1 |  | > 100 µM |
| O=C(CC1(O)C(=O)Nc2ccccc21)c1ccc(O)cc1 (centres undefined) |  | > 100 µM |
| Clc1ccc2nc(-c3ccccc3)nc(Cl)c2c1 |  | > 100 µM |
| Cc1cnc2c(c1)C(=O)C1=C(OC(C)(C)CC1O)C2=O (centres undefined) |  | 28.5 µM |
| CCOC(=O)c1nc2ccccc2nc1Oc1cc(OC)c(OC)c(OC)c1 |  | > 100 µM |
| COc1cc(N2CCN(C(C)C)CC2)ccc1Nc1nc(Nc2cccc(F)c2C(=O)O)c2cc[nH]c2n1 | > 25 µM | > 25 µM |
| Cc1cc(=O)[nH]c(NNC(C#N)c2c(O)ccc3ccccc23)n1 (centres undefined) |  | > 100 µM |
